Among all 310,000 compounds or so, about 2,200 (0.71%) showed an effect of 50% or more. The effect is printed as a negative number. The list shows a part of the results.

Chain of human ether-à-go-go-related gene (hERG) potassium channel (Q12809 whole entry, looked up): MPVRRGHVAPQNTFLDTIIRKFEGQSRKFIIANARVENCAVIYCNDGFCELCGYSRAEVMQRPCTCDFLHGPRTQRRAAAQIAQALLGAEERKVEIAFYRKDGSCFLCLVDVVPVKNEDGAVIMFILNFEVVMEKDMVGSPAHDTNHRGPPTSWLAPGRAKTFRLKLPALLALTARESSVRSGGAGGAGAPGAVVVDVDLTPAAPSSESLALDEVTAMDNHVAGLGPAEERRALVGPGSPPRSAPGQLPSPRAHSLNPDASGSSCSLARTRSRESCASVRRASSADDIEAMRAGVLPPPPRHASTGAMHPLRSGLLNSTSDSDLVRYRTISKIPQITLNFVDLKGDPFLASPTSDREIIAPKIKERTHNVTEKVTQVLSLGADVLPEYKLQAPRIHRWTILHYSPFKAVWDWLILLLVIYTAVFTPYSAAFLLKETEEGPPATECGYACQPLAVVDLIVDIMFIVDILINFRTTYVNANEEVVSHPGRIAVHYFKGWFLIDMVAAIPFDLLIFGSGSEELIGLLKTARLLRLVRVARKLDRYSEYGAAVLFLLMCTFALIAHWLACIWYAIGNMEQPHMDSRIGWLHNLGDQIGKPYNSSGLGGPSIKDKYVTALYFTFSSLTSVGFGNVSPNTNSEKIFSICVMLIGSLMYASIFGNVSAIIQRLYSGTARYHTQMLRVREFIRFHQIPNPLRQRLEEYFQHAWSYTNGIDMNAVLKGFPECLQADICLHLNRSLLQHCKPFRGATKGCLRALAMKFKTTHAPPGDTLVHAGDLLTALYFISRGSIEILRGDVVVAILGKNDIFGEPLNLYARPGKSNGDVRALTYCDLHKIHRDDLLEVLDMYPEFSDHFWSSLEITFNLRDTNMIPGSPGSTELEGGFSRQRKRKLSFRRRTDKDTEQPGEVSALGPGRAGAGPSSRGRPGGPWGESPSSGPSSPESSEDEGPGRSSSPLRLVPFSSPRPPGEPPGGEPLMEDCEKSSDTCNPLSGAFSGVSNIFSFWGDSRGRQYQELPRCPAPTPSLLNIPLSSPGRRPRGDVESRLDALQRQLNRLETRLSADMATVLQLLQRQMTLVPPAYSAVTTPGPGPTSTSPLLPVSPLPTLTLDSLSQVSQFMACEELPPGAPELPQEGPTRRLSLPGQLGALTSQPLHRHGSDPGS

The test addresses human ether-à-go-go-related gene (hERG) potassium channel (human, UniProt Q12809). Nature of the test: primary screen, population patch clamp on CHO cells stably expressing hERG.
`Cc1ccc2nc(C)c(C(=O)N/N=C/c3cccs3)n2c1`: the “hERG current change (%, negative = inhibition) at 1uM” value is listed as 11.9%.
Consider `Cc1ccc(Cl)cc1N1CCN(Cc2nc3c(c(=O)[nH]c(=O)n3C)n2CCc2ccccc2)CC1`, for which the “hERG current change (%, negative = inhibition) at 1uM” value is listed as 11.1%.
In the case of `Cc1[nH]c2ccc(CNS(=O)(=O)c3ccc(S(=O)(=O)N4CCOCC4)cc3)cc2c1C` it was 4.76%.
For the compound `COC(=O)c1cc(C(=O)N2CCN(c3cccc(Cl)c3)CC2)cc([N+](=O)[O-])c1`, the “hERG current change (%, negative = inhibition) at 1uM” value is -16.3%.
For the compound `Cc1ccc(S(=O)(=O)NCC(C)NS(=O)(=O)c2ccccc2[N+](=O)[O-])cc1` (stereo not shown), the “hERG current change (%, negative = inhibition) at 1uM” value is on record as 15.4%.
In the case of `Cc1c(N2C(=O)c3ccccc3C2(O)c2ccccc2)c(=O)n(-c2ccccc2)n1C` (stereo not shown) it was 11.3%; in that of `C[C@H]1CC[C@@H]2N(C1)C[C@H]1[C@@H]3C[C@H]4[C@@H](CC(=O)[C@H]5C[C@@H](O)CC[C@@]54C)[C@@H]3CC[C@H]1[C@]2(C)O.Cl`, 13.8%.
In the case of `Cc1cccnc1NC(=O)CNC(=O)COc1ccccc1`, the “hERG current change (%, negative = inhibition) at 1uM” value worked out at 5.14%.
Turning to `COc1ccccc1CNS(=O)(=O)c1cccc2nsnc12`, the “hERG current change (%, negative = inhibition) at 1uM” value is listed as 11.9%.
Under `CC(=O)Nc1ccc(S(=O)(=O)NC2(C(F)(F)F)NC(=O)N(c3ccccc3F)C2=O)cc1` (stereo not shown) stands 19.3%; under `COC(=O)c1cccc(C23CC4(C2)[C@H](CN(Cc2cccnc2)[C@@H]4c2ccccc2)C3c2ccc(C(F)(F)F)cc2)c1` (stereo partly shown), 8.87%.
In the case of `CC(C(=O)NC1CCCCC1)N1C(=O)c2cccc3cccc1c23` (stereo not shown) it was 2.17%; in that of `CSCc1c(C(=O)NCCc2ccccn2)oc2ccccc12`, 5.17%.
In the case of `Cc1ccccc1NS(=O)(=O)c1nnc(NC(=O)CC(C)C)s1` it was 14.6%; in that of `O=C(OCC(=O)c1cccc2ccccc12)c1ccc(CO)cc1`, 2.51%.
Regarding `COc1cc(C=O)c(-c2c(C=O)cc(OC)c3c2OCO3)c2c1OCO2`, the “hERG current change (%, negative = inhibition) at 1uM” value is 15.3%.
On to `Cc1cc(=O)[nH]c(SCc2csc(-c3ccccc3)n2)n1`, for which the “hERG current change (%, negative = inhibition) at 1uM” value is reported as 9.7%.
On to `Cc1ccc(CN2CCN(/N=C/c3cccnc3)CC2)c(C)c1`, for which the “hERG current change (%, negative = inhibition) at 1uM” value is listed as -18.2%.
Under `CCN(CC(=O)NCc1cccs1)C(=O)c1cccc(S(=O)(=O)N2CCc3ccccc32)c1` stands -13.9%.
Under `COc1cc(C2C(C#N)=C(N)Oc3n[nH]c(-c4cccs4)c32)cc(OC)c1O` (stereo not shown) stands 9.64%; under `CC(C)CN(C(=O)CSc1ncnc2sccc12)C1CCS(=O)(=O)C1` (stereo not shown), -3.06%; under `Cn1ccnc1P(=S)(c1nccn1C)N1CCOCC1`, 8.99%.
For the compound `CC1CCN(c2nc(N3CCCCC3)nc(N3CCCCC3)n2)CC1`, the “hERG current change (%, negative = inhibition) at 1uM” value is 10.7%.
In the case of `Cc1cccc(C)c1OCC(O)CNC(C)c1ccccc1.Cl` (stereo not shown) it was 9.96%.
Under `CCc1c(C)nc2ncnn2c1N1CCCC(C(=O)NCc2ccco2)C1` (stereo not shown) stands -21.1%; under `Cl.O=C(c1ccco1)N1CCN(CCOCCOc2cccc3ccccc23)CC1`, -26.2%.
Regarding `Cc1ccc(N2CC(C(=O)N3CCC(C(=O)NCCCOC(C)C)CC3)CC2=O)cc1` (stereo not shown), the “hERG current change (%, negative = inhibition) at 1uM” value is reported as 10.9%.
Under `CCCCNC(=O)n1c(SC)nc2ccccc21` stands 9.24%; under `Cc1ccc(NC(=O)CN(C)S(=O)(=O)c2cccc3nsnc23)cc1Cl`, 11.3%.
In the case of `O=C(COC(=O)c1c2c(nc3ccccc13)CCCC2)c1cccs1` it was 5.37%; in that of `Oc1ccc(N=Nc2ccccc2-c2nn[nH]n2)c(O)c1`, 11.7%.
In the case of `COc1ccc(N(CC(=O)Nc2ccc(OC)c(Cl)c2)S(=O)(=O)c2c(C)noc2C)cc1` it was 0.616%; in that of `COc1ccccc1OCCNC(=O)CCNC(=O)c1ccccc1Cl`, 13.8%.
Consider `Cc1ccc(O)c(CO)n1`, for which the “hERG current change (%, negative = inhibition) at 1uM” value was 12.3%.
In the case of `O=C(CCCn1c(=O)[nH]c2ccsc2c1=O)NCc1cccs1` it was 12.9%; in that of `COc1ccc(NC(=O)CN(C)C(=O)C(C)N2C(=O)c3ccccc3C2=O)cc1` (stereo not shown), -0.14%.
In the case of `CC(C)(CNC(=O)Cc1ccc(Cl)cc1Cl)N1CCOCC1` it was 8.48%; in that of `COc1ccccc1-n1c(-c2ccc(NS(C)(=O)=O)cc2)n[nH]c1=S`, 14.1%.
In the case of `O=C(Nc1ccc(Nc2ccccc2)cc1)C1CC1` it was -6.21%; in that of `Cc1ccc(-c2cc(C(=O)N3CC(C)CC(C)C3)c3ccccc3n2)o1` (stereo not shown), 5.05%.
Regarding `CCOc1ccc(N2CC(C(=O)Nc3cccc(S(=O)(=O)NC4=NCCC4)c3)CC2=O)cc1` (stereo not shown), the “hERG current change (%, negative = inhibition) at 1uM” value is on record as 3.13%.
Under `CC(=O)N1c2c(cc(Br)cc2S(=O)(=O)NCc2ccccc2)CC1C` (stereo not shown) stands 4.34%.
Under `CCOc1ccccc1-c1cc(C(=O)N/N=C/c2ccc(O)c(OC)c2)c2ccccc2n1` stands -10.2%.
In the case of `CC1CCCCC1NC(=O)CNC(=O)c1ccco1` (stereo not shown) it was 7.03%; in that of `Nc1c(C(=O)NCc2ccc3c(c2)OCO3)nnn1-c1ccc(OC(F)(F)F)cc1`, 9.87%; in that of `CN(/N=C/c1cc(Cl)ccc1O)C1=NS(=O)(=O)c2ccccc21`, 17.3%.
As for `Cn1c(CN2CCN(c3ccc(Cl)cc3)CC2)nc2ccccc21`, the “hERG current change (%, negative = inhibition) at 1uM” value is -4.19%.
In the case of `CSC1=N/C(=C\c2ccccc2Cl)C(=O)N1N(C)C` it was 1.86%.
Turning to `Cc1cccc(NC(=O)COc2nsnc2N2CCOCC2)c1`, the “hERG current change (%, negative = inhibition) at 1uM” value was 9.24%.
Under `COCCCNC(=O)C(=O)NCC1CCCN1S(=O)(=O)c1cccs1` (stereo not shown) stands -0.0536%; under `COc1ccc(-c2onc(C)c2-c2ccc3c(c2)OCCO3)c(O)c1`, 5.16%; under `COc1ccc(CCNC(=O)c2cc(COc3c(F)cccc3F)on2)c(OC)c1`, 2.31%.
For the compound `O=C(CCc1nc2ccccc2c(=O)[nH]1)OCC(=O)N1CCN(S(=O)(=O)c2ccccc2)CC1`, the “hERG current change (%, negative = inhibition) at 1uM” value was 8.41%.
As for `COc1cc(CNC(C)(C)CO)cc(Br)c1OCc1ccc(Cl)cc1.Cl`, the “hERG current change (%, negative = inhibition) at 1uM” value is 3.94%.
`COc1ccc(N(CC(=O)NCCSC(C)(C)C)S(C)(=O)=O)c(OC)c1`: the “hERG current change (%, negative = inhibition) at 1uM” value was determined as 16%.

Source of the values: paper PMC4336329 (PLoS ONE, 2015).
